Article PMC11995724, “Antibiotic target discovery by integrated phenotypic and activity-based profiling of electrophilic fragments” (Cell chemical biology, 2025)
In all, about 3,200 compounds went through this assay and about 110 (3.4%) showed an effect of 50% or more. The list shows a part of the results.

tested on: T1, V. cholerae SAD30; set-up: species or system S. aureus MSSA476 (TSB) or V. cholerae SAD30 (LB); 384-well bacterial growth screen at 25 uM, OD600 relative to DMSO control; conditions: relative growth, OD600, LB; 25 µM; inhibitor
T1 construct: SAD30

SMILES | % of control remaining [%]
C=CC(=O)NCC(CC)n1nc(C)cc1C (stereo not shown) [1-K21, N-[2-(3,5-dimethyl-1H-pyrazol-1-yl)butyl]prop-2-enamide] | 94.6188
Cc1nn(C)c(C)c1C=C(C#N)C(=O)Nc1ccccc1F [9-I07, 2-cyano-N-(2-fluorophenyl)-3-(1,3,5-trimethyl-1H-pyrazol-4-yl)prop-2-enamide] | 88.3073
Cc1cc2ncn(CC(NC(=O)C(C)Cl)C3CC3)c2cc1C (stereo not shown) [7-J17, 2-chloro-N-[1-cyclopropyl-2-(5,6-dimethyl-1H-1,3-benzodiazol-1-yl)ethyl]propanamide] | 56.1705
O=C(CCl)N(Cc1cnn(-c2ccccc2)c1)C1CC1 [6-L09, 2-chloro-N-cyclopropyl-N-[(1-phenyl-1H-pyrazol-4-yl)methyl]acetamide] | 91.0039
Cc1ccc(NC(=O)CN2CCN(C(=O)CCl)CC2)cc1.Cl [4-D16, 2-[4-(2-chloroacetyl)piperazin-1-yl]-N-(4-methylphenyl)acetamide hydrochloride] | 86.2627
CC(C)c1ccc(Cn2[nH]ccc2=NC(=O)CCl)cc1 [5-P12, 2-chloro-N-(2-{[4-(propan-2-yl)phenyl]methyl}-2,3-dihydro-1H-pyrazol-3-ylidene)acetamide] | 102.385
C=CC(=O)NCc1ccc(C(=O)N2CCCCC(SC)C2)cc1 (stereo not shown) [2-B20, N-({4-[3-(methylsulfanyl)azepane-1-carbonyl]phenyl}methyl)prop-2-enamide] | 94.519
CC(Cl)C(=O)NC1c2cc(F)ccc2CC1C (stereo not shown) [7-E16, 2-chloro-N-(6-fluoro-2-methyl-2,3-dihydro-1H-inden-1-yl)propanamide] | 70.8409
CC(Cl)C(=O)NCCc1nc(C2CCCCC2)cs1 (stereo not shown) [7-F09, 2-chloro-N-[2-(4-cyclohexyl-1,3-thiazol-2-yl)ethyl]propanamide] | 68.7263
Cc1ccc(C(=O)C(C)Cl)cc1C (stereo not shown) [10-B20, 2-chloro-1-(3,4-dimethylphenyl)propan-1-one] | 99.2792
O=C(CCl)N(Cc1nc(C2CCCCCC2)no1)C1CC1 [7-B16, 2-chloro-N-[(3-cycloheptyl-1,2,4-oxadiazol-5-yl)methyl]-N-cyclopropylacetamide] | 80.2247
COCC(C)n1c(C)cc(C=C(C#N)C(=O)NS(C)(=O)=O)c1C (stereo not shown) [8-B04, 2-cyano-N-methanesulfonyl-3-[1-(1-methoxypropan-2-yl)-2,5-dimethyl-1H-pyrrol-3-yl]prop-2-enamide] | 81.6451
C=CC(=O)N(C)CCCn1c(=O)c(C)nc2ccccc21 [1-I08, N-methyl-N-[3-(3-methyl-2-oxo-1,2-dihydroquinoxalin-1-yl)propyl]prop-2-enamide] | 88.1913
CC(Cl)C(=O)N1CCn2cccc2C1c1ccccc1 (stereo not shown) [7-E11, 2-chloro-1-{1-phenyl-1H,2H,3H,4H-pyrrolo[1,2-a]pyrazin-2-yl}propan-1-one] | 77.8457
CN(C)c1ccc(C=C(C#N)C(=O)Nc2ccc3c(c2)OCCO3)cc1 [9-B21, 2-cyano-N-(2,3-dihydro-1,4-benzodioxin-6-yl)-3-[4-(dimethylamino)phenyl]prop-2-enamide] | 90.7546
O=C(CCl)NCCc1nc2ccccc2s1 [6-K20, N-[2-(1,3-benzothiazol-2-yl)ethyl]-2-chloroacetamide] | 97.3742
O=C(CCl)N1CCCCC1Cn1ccnn1 (stereo not shown) [5-E08, 2-chloro-1-{2-[(1H-1,2,3-triazol-1-yl)methyl]piperidin-1-yl}ethan-1-one] | 98.5184
C=CC(=O)NCc1cn2c(n1)CCCC2 [3-L20, N-({5H,6H,7H,8H-imidazo[1,2-a]pyridin-2-yl}methyl)prop-2-enamide] | 95.9713
CC(Cl)C(=O)N1CCC(n2c(=O)[nH]c3ccccc32)CC1 (stereo not shown) [6-N05, 1-[1-(2-chloropropanoyl)piperidin-4-yl]-2,3-dihydro-1H-1,3-benzodiazol-2-one] | 91.7623
CCOc1ccc(C=C(C#N)C(=O)Nc2nccs2)cc1 [9-C06, 2-cyano-3-(4-ethoxyphenyl)-N-(1,3-thiazol-2-yl)prop-2-enamide] | 88.0354
Cc1cc(C(=O)CCl)c(C)n1-c1ccon1 [10-F06, 2-chloro-1-[2,5-dimethyl-1-(1,2-oxazol-3-yl)-1H-pyrrol-3-yl]ethan-1-one] | 37.8726
COc1ccccc1N(CC(F)(F)F)C(=O)CCl [4-C18, 2-chloro-N-(2-methoxyphenyl)-N-(2,2,2-trifluoroethyl)acetamide] | 96.0966
C=CC(=O)N[C@@H](CN(C)C)c1ccccc1 [2-M19, N-[(1R)-2-(dimethylamino)-1-phenylethyl]prop-2-enamide] | 89.5783
O=C(CCl)NCC(F)(F)c1cccnc1 [6-C21, 2-chloro-N-[2,2-difluoro-2-(pyridin-3-yl)ethyl]acetamide] | 97.8292
C=CC(=O)NCc1nnc2ccccn12 [1-H19, N-({[1,2,4]triazolo[4,3-a]pyridin-3-yl}methyl)prop-2-enamide] | 85.6502
CC(C)NC(=O)C(C#N)=Cc1cccc(O)c1 [8-A22, 2-cyano-3-(3-hydroxyphenyl)-N-(propan-2-yl)prop-2-enamide] | 101.768
N#CC(=Cc1ccc(O)c(O)c1)C(=O)Nc1ccccc1F [8-B05, 2-cyano-3-(3,4-dihydroxyphenyl)-N-(2-fluorophenyl)prop-2-enamide] | 69.1366
N#CC(=Cc1ccc(-c2ccccc2F)o1)C(=O)NCc1ccccc1 [9-H10, N-benzyl-2-cyano-3-[5-(2-fluorophenyl)furan-2-yl]prop-2-enamide] | 89.123
